Legend:
Conditions in all cases: remark: other sources report otherwise
[1] = target: T1, Escherichia coli IscS (native cysteine desulfurase) (E. coli), P0A6B7; test: SEC
T1 chain: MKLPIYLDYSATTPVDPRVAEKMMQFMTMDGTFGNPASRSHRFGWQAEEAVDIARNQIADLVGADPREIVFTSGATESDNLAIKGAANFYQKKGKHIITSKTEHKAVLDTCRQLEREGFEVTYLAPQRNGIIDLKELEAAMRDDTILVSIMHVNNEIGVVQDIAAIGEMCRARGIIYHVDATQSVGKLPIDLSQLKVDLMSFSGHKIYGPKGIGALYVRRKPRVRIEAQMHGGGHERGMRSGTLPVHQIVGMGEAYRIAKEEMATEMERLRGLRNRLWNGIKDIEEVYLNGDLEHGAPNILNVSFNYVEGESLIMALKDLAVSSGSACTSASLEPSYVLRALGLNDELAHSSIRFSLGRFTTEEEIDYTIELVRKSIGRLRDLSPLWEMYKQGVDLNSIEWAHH

[2] = target: T1, Escherichia coli IscS (native cysteine …); test: SEC
[3] = target: T1, Escherichia coli IscS (native cysteine …)

B1: Escherichia coli IscS (native cysteine desulfurase), P0A6B7 1-404 (enzyme)
chain: T1 chain
Q: With B1 as the binder, how does the stoichiometry N [1] read?
A: 2

Q: What about the stoichiometry N [2] of the same binder?
A: 2

Q: What about the Kd [3] of the same binder?
A: 8 nM
